Assays:
[1] = target: ErbB3 (HER3), endogenous on human tumor cell lines (human, UniProt P21860 20-1342); experiment: cell-based or functional assay
[2] = target: IGF-1R (receptor for insulin-like growth factor 1), endogenous on human tumor cell lines (human, UniProt P08069 31-1367); experiment: cell-based or functional assay
[3] = target: T1, ErbB3-His (ErbB3 with a C-terminal hexa-histidine tag), human (human, UniProt P21860 part only); experiment: ELISA, ErbB3-His coated plate, anti-Fc-HRP
T1 construct: Bought reagent; also called recombinant ErbB3
Protocol: 96-well REACTI-BIND plates (Pierce) are coated with 50 ul of ErbB3-His (ErbB3 with a C-terminal hexa-histidine tag—2 ug/ml in PBS) (“hexa-histidine” disclosed as SEQ ID NO:403) and incubated overnight at 4° C. The next day plates are washed with PBS+0.05% Tween-20 (PBS-T) and blocked for 1 hr. at room temperature with 100 ul of Protein-Free Blocking Buffer (Pierce). Plates are washed with PBS-T and 50 ul of each bispecific antibody is added in duplicate. Concentrations start at 500 nM (in PBS-T) and include ten additional two-fold dilutions and one blank (PBS-T only). Plates are incubated at room temperature for two hours and then washed with PBS-T. 50 ul of anti-Fc-HRP (Jackson Labs) is added at 1:40,000 in PBS-T, and plates are incubated in the dark for 1 hr. at room temperature. Plates are again washed with PBS-T and 100 ul of TMB substrate (Thermo Scientific, TMB and peroxide solution mixed 1:1) added. The plates are incubated for 5-15 minutes at room temperature until a blue color develops, and the reaction is stopped with 100 ul of STOP solution (Cell Signaling Technology). The absorbance was read at 450 nm on a PerkinElmer Envision plate reader, and binding curves were generated with GraphPad PRISM, using a log (agonist) vs response (three parameter) non-linear regression curve fit.

Sequence of UniProt P08069 (P08069 31-1367): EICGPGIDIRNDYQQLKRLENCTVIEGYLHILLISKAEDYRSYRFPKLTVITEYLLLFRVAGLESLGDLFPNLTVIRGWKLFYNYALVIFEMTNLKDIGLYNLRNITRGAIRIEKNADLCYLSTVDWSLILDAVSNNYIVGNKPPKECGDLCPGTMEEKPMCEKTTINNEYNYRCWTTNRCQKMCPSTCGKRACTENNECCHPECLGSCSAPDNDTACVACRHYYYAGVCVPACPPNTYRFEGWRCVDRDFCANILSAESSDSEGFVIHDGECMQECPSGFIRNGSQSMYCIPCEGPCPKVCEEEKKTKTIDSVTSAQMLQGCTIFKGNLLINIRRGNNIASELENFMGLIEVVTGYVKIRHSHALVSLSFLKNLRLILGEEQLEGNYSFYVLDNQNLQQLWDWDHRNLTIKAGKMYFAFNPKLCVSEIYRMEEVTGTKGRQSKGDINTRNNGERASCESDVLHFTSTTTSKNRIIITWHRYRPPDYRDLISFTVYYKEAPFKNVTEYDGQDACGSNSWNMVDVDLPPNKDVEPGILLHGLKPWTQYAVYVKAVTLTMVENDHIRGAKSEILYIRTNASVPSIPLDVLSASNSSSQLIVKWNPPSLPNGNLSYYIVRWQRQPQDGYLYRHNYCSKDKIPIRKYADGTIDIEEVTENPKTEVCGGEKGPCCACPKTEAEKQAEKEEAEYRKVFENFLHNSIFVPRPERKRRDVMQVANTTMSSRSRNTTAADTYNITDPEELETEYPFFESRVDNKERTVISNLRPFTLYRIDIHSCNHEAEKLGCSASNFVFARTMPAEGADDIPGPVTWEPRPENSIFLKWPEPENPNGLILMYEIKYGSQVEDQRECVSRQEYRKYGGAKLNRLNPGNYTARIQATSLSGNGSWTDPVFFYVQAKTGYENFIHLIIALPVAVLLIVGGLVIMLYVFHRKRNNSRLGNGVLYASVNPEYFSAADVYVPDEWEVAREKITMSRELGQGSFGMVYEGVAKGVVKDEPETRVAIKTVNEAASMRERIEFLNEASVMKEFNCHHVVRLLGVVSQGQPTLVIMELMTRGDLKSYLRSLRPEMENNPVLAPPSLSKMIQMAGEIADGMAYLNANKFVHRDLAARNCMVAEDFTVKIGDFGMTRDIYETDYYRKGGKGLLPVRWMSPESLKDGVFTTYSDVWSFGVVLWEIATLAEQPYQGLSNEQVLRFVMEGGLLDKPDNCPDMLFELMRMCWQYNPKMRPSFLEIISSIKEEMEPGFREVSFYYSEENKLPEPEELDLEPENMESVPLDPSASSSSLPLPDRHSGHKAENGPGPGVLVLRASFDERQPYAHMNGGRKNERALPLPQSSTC

| pErbB3 % Inhibition (BxPC-3) [1] [%] | pErbB3 IC50 (BxPC-3) [1] | pIGF1R % Inhibition (BxPC-3) [2] [%] | pIGF1R IC50 (BxPC-3) [2] | EC50 [3] [nM] | Binder |
| --- | --- | --- | --- | --- | --- |
| 97 | 2.5e-10 M (inferred) | 87.9 | 8e-10 M (inferred) | 0.2 | SF-G1-M1.3 (bispecific antibody, human IgG1, kappa, IgG1-(scFv)2: anti-IGF-1R Fab, anti-ErbB3 scFv) heavy: EVQLLQSGGGLVQPGGSLRLSCAASGFTFSVYPMHWVRQAPGKGLEWVSSISSSGGATRYADSVKGRFTISRDNSKNTLYLQMNSLRAEDTAVYYCAKDFYDILTGNAFDIWGQGTTVTVSSASTKGPSVFPLAPSSKSTSGGTAALGCLVKDYFPEPVTVSWNSGALTSGVHTFPAVLQSSGLYSLSSVVTVPSSSLGTQTYICNVNHKPSNTKVDKKV[left out - human IgG1 Fc]GGGSGGGGSGGGGSQVQLVQSGGGLVQPGGSLRLSCAASGFTFDDYAMHWVRQAPGKGLEWVAGISWDSGSTGYADSVKGRFTISRDNAKNSLYLQMNSLRAEDTALYYCARDLGAYQWVEGFDYWGQGTLVTVSSASTGGGGSGGGGSGGGGSGGGGSSYELTQDPAVSVALGQTVRITCQGDSLRSYYASWYQQKPGQAPVLVIYGKNNRPSGIPDRFSGSTSGNSASLTITGAQAEDEADYYCNSRDSPGNQWVFGGGTKVTVLG light: DIQMTQSPSSLSASTGDRVTITCRASQGISSYLAWYQQKPGKAPKLLIYAASTLQSGVPSRFSGSGSGTDFTLTISSLQPEDFATYYCQQYFTFPLTFGGGTKVEIKRTVAAPSVFIFPPSDEQLKSGTASVVCLLNNFYPREAKVQWKVDNALQSGNSQESVTEQDSKDSTYSLSSTLTLSKADYEKHKVYACEVTHQGLSSPVTKSFNRGEC |
| 96.6 | 2.9e-10 M (inferred) | 91.2 | 8.2e-10 M (inferred) | 0.3 | SF-G1-P6 (bispecific antibody, human IgG1, kappa, IgG1-(scFv)2: anti-IGF-1R Fab, anti-ErbB3 scFv) heavy: EVQLLQSGGGLVQPGGSLRLSCAASGFTFSVYPMHWVRQAPGKGLEWVSSISSSGGATRYADSVKGRFTISRDNSKNTLYLQMNSLRAEDTAVYYCAKDFYDILTGNAFDIWGQGTTVTVSSASTKGPSVFPLAPSSKSTSGGTAALGCLVKDYFPEPVTVSWNSGALTSGVHTFPAVLQSSGLYSLSSVVTVPSSSLGTQTYICNVNHKPSNTKVDKKV[left out - human IgG1 Fc]GGGSGGGGSGGGGSEVQLVESGGGLVQPGRSLRLSCAASGFTFDDYAMHWVRQAPGKGLEWVSGISWNSGSTGYADSVKGRFTISRDNAKNSLYLQMNSLRAEDTALYYCARDLGYNQWLEGFDYWGQGTLVTVSSASTGGGGSGGGGSGGGGSSSELTQDPAVSVALGQTVRITCQGDSLRSYYASWYQQKPGQAPVLVIYGKNNRPSGIPDRFSGSSSGNTASLTITGAQAEDEADYYCMSRDHPGNQWVFGGGTKVTVLG light: DIQMTQSPSSLSASTGDRVTITCRASQGISSYLAWYQQKPGKAPKLLIYAASTLQSGVPSRFSGSGSGTDFTLTISSLQPEDFATYYCQQYFTFPLTFGGGTKVEIKRTVAAPSVFIFPPSDEQLKSGTASVVCLLNNFYPREAKVQWKVDNALQSGNSQESVTEQDSKDSTYSLSSTLTLSKADYEKHKVYACEVTHQGLSSPVTKSFNRGEC |
| 98.1 | 2.5e-10 M (inferred) | 90.7 | 6e-10 M (inferred) | 0.4 | SF-G1-M27 (bispecific antibody, human IgG1, kappa, IgG1-(scFv)2: anti-IGF-1R Fab, anti-ErbB3 scFv) heavy: EVQLLQSGGGLVQPGGSLRLSCAASGFTFSVYPMHWVRQAPGKGLEWVSSISSSGGATRYADSVKGRFTISRDNSKNTLYLQMNSLRAEDTAVYYCAKDFYDILTGNAFDIWGQGTTVTVSSASTKGPSVFPLAPSSKSTSGGTAALGCLVKDYFPEPVTVSWNSGALTSGVHTFPAVLQSSGLYSLSSVVTVPSSSLGTQTYICNVNHKPSNTKVDKKV[left out - human IgG1 Fc]GGGSGGGGSGGGGSEVQLVESGGGLVQPGRSLRLSCAASGFTFDDYAMHWVRQAPGKGLEWVSGISWNSGSTGYADSVKGRFTISRDNAKNSLYLQMNSLRAEDTALYYCARDLGFNQWVDGFDYWGQGTLVTVSSASTGGGGSGGGGSGGGGSSSELTQDPAVSVALGQTVRITCQGDSLRSYYASWYQQKPGQAPVLVIYGKNNRPSGIPDRFSGSSSGNTASLTITGAQAEDEADYYCNSRDTPGDQWVFGGGTKVTVLG light: DIQMTQSPSSLSASTGDRVTITCRASQGISSYLAWYQQKPGKAPKLLIYAASTLQSGVPSRFSGSGSGTDFTLTISSLQPEDFATYYCQQYFTFPLTFGGGTKVEIKRTVAAPSVFIFPPSDEQLKSGTASVVCLLNNFYPREAKVQWKVDNALQSGNSQESVTEQDSKDSTYSLSSTLTLSKADYEKHKVYACEVTHQGLSSPVTKSFNRGEC |
| 97.8 | 5.2e-10 M (inferred) | 91.1 | 1.2e-09 M (inferred) | 0.4 | SF-G1-B69 (bispecific antibody, human IgG1, kappa, IgG1-(scFv)2: anti-IGF-1R Fab, anti-ErbB3 scFv) heavy: EVQLLQSGGGLVQPGGSLRLSCAASGFTFSVYPMHWVRQAPGKGLEWVSSISSSGGATRYADSVKGRFTISRDNSKNTLYLQMNSLRAEDTAVYYCAKDFYDILTGNAFDIWGQGTTVTVSSASTKGPSVFPLAPSSKSTSGGTAALGCLVKDYFPEPVTVSWNSGALTSGVHTFPAVLQSSGLYSLSSVVTVPSSSLGTQTYICNVNHKPSNTKVDKKV[left out - human IgG1 Fc]GGGSGGGGSGGGGSEVQLVESGGGLVQPGRSLRLSCAASGFTFDDYAMHWVRQAPGKGLEWVSGISWNSGSVGYADSVKGRFTISRDNAKNSLYLQMNSLRAEDTALYYCARDLGYNQWLEGFDYWGQGTLVTVSSASTGGGGSGGGGSGGGGSSSELTQDPAVSVALGQTVRITCQGDSLRSYYASWYQQKPGQAPVLVIYGKNNRPSGIPDRFSGSSSGNTASLTITGAQAEDEADYYCMSRDSPGNQWVFGGGTKVTVLG light: DIQMTQSPSSLSASTGDRVTITCRASQGISSYLAWYQQKPGKAPKLLIYAASTLQSGVPSRFSGSGSGTDFTLTISSLQPEDFATYYCQQYFTFPLTFGGGTKVEIKRTVAAPSVFIFPPSDEQLKSGTASVVCLLNNFYPREAKVQWKVDNALQSGNSQESVTEQDSKDSTYSLSSTLTLSKADYEKHKVYACEVTHQGLSSPVTKSFNRGEC |
| 95.3 | 6.9e-10 M (inferred) | 91.3 | 9.2e-10 M (inferred) | 0.4 | SF-G1-P1 (bispecific antibody, human IgG1, kappa, IgG1-(scFv)2: anti-IGF-1R Fab, anti-ErbB3 scFv) heavy: EVQLLQSGGGLVQPGGSLRLSCAASGFTFSVYPMHWVRQAPGKGLEWVSSISSSGGATRYADSVKGRFTISRDNSKNTLYLQMNSLRAEDTAVYYCAKDFYDILTGNAFDIWGQGTTVTVSSASTKGPSVFPLAPSSKSTSGGTAALGCLVKDYFPEPVTVSWNSGALTSGVHTFPAVLQSSGLYSLSSVVTVPSSSLGTQTYICNVNHKPSNTKVDKKV[left out - human IgG1 Fc]GGGSGGGGSGGGGSEVQLVESGGGLVQPGRSLRLSCAASGFTFDDYAMHWVRQAPGKGLEWVSGISWDSGSTGYADSVKGRFTISRDNAKNSLYLQMNSLRAEDTALYYCARDLGAYQWVEGFDYWGQGTLVTVSSASTGGGGSGGGGSGGGGSSSELTQDPAVSVALGQTVRITCQGDSLRSYYASWYQQKPGQAPVLVIYGKNNRPSGIPDRFSGSSSGNTASLTITGAQAEDEADYYCESRDSPGNQWVFGGGTKVTVLG light: DIQMTQSPSSLSASTGDRVTITCRASQGISSYLAWYQQKPGKAPKLLIYAASTLQSGVPSRFSGSGSGTDFTLTISSLQPEDFATYYCQQYFTFPLTFGGGTKVEIKRTVAAPSVFIFPPSDEQLKSGTASVVCLLNNFYPREAKVQWKVDNALQSGNSQESVTEQDSKDSTYSLSSTLTLSKADYEKHKVYACEVTHQGLSSPVTKSFNRGEC |
